No constants are given. Whether binding was seen depends on the method and setting. For part of these data: In cells and extracts the contact can be indirect. Some entries that bind do so weakly or less than the wild type.
Assays:
[1] = biological target: VSV-M-flag (Vesicular stomatitis Indiana virus) (UniProt P03519); assay: co-IP
[2] = biological target: M protein of Sendai virus (SeV), pGBKT7 bait (Sendai virus) (UniProt O57299); assay: two-hybrid
[3] = biological target: T1, RSV M2-1 protein (RSV) (UniProt P04545); assay: two-hybrid
T1 sequence: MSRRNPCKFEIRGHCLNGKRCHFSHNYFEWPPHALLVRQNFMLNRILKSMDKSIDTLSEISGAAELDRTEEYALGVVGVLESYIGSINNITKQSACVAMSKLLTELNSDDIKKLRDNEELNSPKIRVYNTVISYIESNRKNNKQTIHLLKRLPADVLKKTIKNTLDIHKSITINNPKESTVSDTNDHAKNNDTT

[4] = biological target: M protein of measles virus (MeV), pGBKT7 bait (Measles virus) (UniProt Q9W850); assay: two-hybrid
[5] = biological target: M protein of human respiratory syncytial virus (HRSV), pGBKT7 bait (Human respiratory syncytial virus) (UniProt Q4KRW7); assay: two-hybrid

Row | Substance | binding [1] | binding [2] | binding [3] | binding [4] | binding [5]
1 | endogenous SLD5 of 293 T cells (from UniProt Q9BRT9 1-223) | binds |  |  |  | 
2 | human SLD5 fused to the pGADT7 vector (prey) (from UniProt Q9BRT9 1-223) |  | binds | binds | binds | no binding
3 | human SLD5 expressed from PCDH-SLD5 (from UniProt Q9BRT9 1-223) | binds |  |  |  | 
